We go through 153 variants from a collection of fitness landscapes (doi:10.1016/j.celrep.2020.107928).

The full ranking holds about 81,000 sequences; the median of “one-hybrid fitness for binding parS DNA” is about -0.17, and the highest 2% start at about 0.51. The list shows a part of the results.

The chains are these.
B1: Caulobacter ParB omega fusion; a variant is named by its letters at X, in order, B8GW30 (parent)
chain: MESVVVGEPGMSEGRRGLGRGLSALLGEVDAAPAQAPGEQLGGSREAPIEILQRNPDQPRRTFREEDLEDLSNSIREKGVLQPILVRPSPDTAGEYQIVAGERAWRAAQRAGLKTVPIMVRELDDLAVLEIGIIENVQRADLNVLEEALSYKVLMEKFERTQENIAQTIGKSXSHVANXMRLLXLPDEVQSYLVSGELTAXHARAIAAAADPVALAKQIIEGGLSVRETEALARKAPNLSAGKSKGGRPPRVKDTDTQALESDLSSVLGLDVSIDHRGSTGTLTITYATLEQLDDLCNRLTRGI

The variants in the assay derive from B1. Kind of assay: one-hybrid fitness for binding parS DNA (scaled: cognate 1, non-cognate 0); higher = stronger binding. The note with it: with parS DNA site. In short, it runs like this: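 Fitness here means the log change in variant-to-wild-type read ratio between plasmids sequenced before and after selection. That scale was set so cognate equals 1 and non-cognate equals 0. The selection was a bacterial one-hybrid screen of Caulobacter ParB libraries, four specificity codons randomised, in E. coli USO carrying a HIS3 reporter with the site 19 bp from the promoter, grown 48 hours at 37°C on M9-minus-histidine with 0.1 mM IPTG and 5 mM 3-AT.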
VSSV: the “one-hybrid fitness for binding parS DNA” value was not above 0.2.

With LRVW, the “one-hybrid fitness for binding parS DNA” value was not above 0.2.

Take SCML: the “one-hybrid fitness for binding parS DNA” value is not above 0.2.

As for STSR, the “one-hybrid fitness for binding parS DNA” value is not above 0.2.

As for QCGR, the “one-hybrid fitness for binding parS DNA” value is not above 0.2.

Take RISN: the “one-hybrid fitness for binding parS DNA” value came out at 0.454.

In the case of MEYN, the “one-hybrid fitness for binding parS DNA” value is not above 0.2.

DAGG: the “one-hybrid fitness for binding parS DNA” value is not above 0.2.

Regarding GYGT, the “one-hybrid fitness for binding parS DNA” value is not above 0.2.

In the case of ITRM, the “one-hybrid fitness for binding parS DNA” value is not above 0.2.

Consider AFLR, for which the “one-hybrid fitness for binding parS DNA” value is not above 0.2.

With GIPI, the “one-hybrid fitness for binding parS DNA” value was not above 0.2.

As to KVKS, the “one-hybrid fitness for binding parS DNA” value is not above 0.2.

As to QIVT, the “one-hybrid fitness for binding parS DNA” value is not above 0.2.

As to IKYL, the “one-hybrid fitness for binding parS DNA” value was not above 0.2.

PFSD: the “one-hybrid fitness for binding parS DNA” value was not above 0.2.

With GVNF, the “one-hybrid fitness for binding parS DNA” value is not above 0.2.

For the variant YVVC, the “one-hybrid fitness for binding parS DNA” value was not above 0.2.

For the variant GQRD, the “one-hybrid fitness for binding parS DNA” value was not above 0.2.

As to DRFK, the “one-hybrid fitness for binding parS DNA” value is not above 0.2.

Turning to WHIG, the “one-hybrid fitness for binding parS DNA” value is not above 0.2.

As for CPKA, the “one-hybrid fitness for binding parS DNA” value was not above 0.2.

With ELYT, the “one-hybrid fitness for binding parS DNA” value was not above 0.2.

As to LSPQ, the “one-hybrid fitness for binding parS DNA” value is not above 0.2.

GHML: the “one-hybrid fitness for binding parS DNA” value is not above 0.2.

For EGCL, the “one-hybrid fitness for binding parS DNA” value is not above 0.2.

Consider HTSC, for which the “one-hybrid fitness for binding parS DNA” value was not above 0.2.

Regarding YIFG, the “one-hybrid fitness for binding parS DNA” value was not above 0.2.

In the case of NWNC, the “one-hybrid fitness for binding parS DNA” value is not above 0.2.

MTTG: the “one-hybrid fitness for binding parS DNA” value was not above 0.2.

As to KTTL, the “one-hybrid fitness for binding parS DNA” value was not above 0.2.

Regarding SYQG, the “one-hybrid fitness for binding parS DNA” value was not above 0.2.

IYPK: the “one-hybrid fitness for binding parS DNA” value was not above 0.2.

As to LYEG, the “one-hybrid fitness for binding parS DNA” value was not above 0.2.

As for IDVS, the “one-hybrid fitness for binding parS DNA” value was not above 0.2.

Turning to KLYE, the “one-hybrid fitness for binding parS DNA” value was not above 0.2.

For the variant QSRT, the “one-hybrid fitness for binding parS DNA” value was not above 0.2.

As for MLPS, the “one-hybrid fitness for binding parS DNA” value is not above 0.2.

For the variant SYDF, the “one-hybrid fitness for binding parS DNA” value is not above 0.2.

For the variant TTSL, the “one-hybrid fitness for binding parS DNA” value was not above 0.2.

Regarding SFKI, the “one-hybrid fitness for binding parS DNA” value is not above 0.2.

For RNCR, the “one-hybrid fitness for binding parS DNA” value is not above 0.2.

RMTK: the “one-hybrid fitness for binding parS DNA” value is not above 0.2.

With TTGS, the “one-hybrid fitness for binding parS DNA” value is not above 0.2.

Turning to TALK, the “one-hybrid fitness for binding parS DNA” value is not above 0.2.

Take YSSA: the “one-hybrid fitness for binding parS DNA” value is not above 0.2.

Consider LCAC, for which the “one-hybrid fitness for binding parS DNA” value was not above 0.2.

Turning to GLVI, the “one-hybrid fitness for binding parS DNA” value is not above 0.2.

Turning to FIKG, the “one-hybrid fitness for binding parS DNA” value was not above 0.2.

In the case of SDGS, the “one-hybrid fitness for binding parS DNA” value was not above 0.2.

As for AEDA, the “one-hybrid fitness for binding parS DNA” value is not above 0.2.

Take CNPT: the “one-hybrid fitness for binding parS DNA” value is not above 0.2.

Turning to RSIW, the “one-hybrid fitness for binding parS DNA” value is not above 0.2.

As for IHIM, the “one-hybrid fitness for binding parS DNA” value was not above 0.2.

In the case of NDLM, the “one-hybrid fitness for binding parS DNA” value was not above 0.2.

As to ISQS, the “one-hybrid fitness for binding parS DNA” value was not above 0.2.

In the case of SPGR, the “one-hybrid fitness for binding parS DNA” value is not above 0.2.

In the case of TTDF, the “one-hybrid fitness for binding parS DNA” value is not above 0.2.

For KTVS, the “one-hybrid fitness for binding parS DNA” value was not above 0.2.

Consider IFSI, for which the “one-hybrid fitness for binding parS DNA” value is not above 0.2.

With SSPT, the “one-hybrid fitness for binding parS DNA” value was not above 0.2.

Regarding ELMF, the “one-hybrid fitness for binding parS DNA” value is not above 0.2.

With AHTE, the “one-hybrid fitness for binding parS DNA” value is not above 0.2.

In the case of TDDS, the “one-hybrid fitness for binding parS DNA” value was not above 0.2.

Take RSAY: the “one-hybrid fitness for binding parS DNA” value was determined as 0.462.

On to AACR, for which the “one-hybrid fitness for binding parS DNA” value was not above 0.2.

For the variant WATC, the “one-hybrid fitness for binding parS DNA” value was not above 0.2.

PVRY: the “one-hybrid fitness for binding parS DNA” value is not above 0.2.

Regarding IHNG, the “one-hybrid fitness for binding parS DNA” value was not above 0.2.

Consider QIHN, for which the “one-hybrid fitness for binding parS DNA” value is not above 0.2.

In the case of QKFS, the “one-hybrid fitness for binding parS DNA” value was not above 0.2.

RTCQ: the “one-hybrid fitness for binding parS DNA” value is not above 0.2.

Turning to SPHS, the “one-hybrid fitness for binding parS DNA” value was not above 0.2.

On to TAAR, for which the “one-hybrid fitness for binding parS DNA” value is not above 0.2.

On to EYHT, for which the “one-hybrid fitness for binding parS DNA” value is not above 0.2.

CHSP: the “one-hybrid fitness for binding parS DNA” value is not above 0.2.

Consider VALD, for which the “one-hybrid fitness for binding parS DNA” value is not above 0.2.

As for NNAC, the “one-hybrid fitness for binding parS DNA” value is not above 0.2.

On to ECVS, for which the “one-hybrid fitness for binding parS DNA” value is not above 0.2.

For the variant KYNA, the “one-hybrid fitness for binding parS DNA” value is not above 0.2.

RDVT: the “one-hybrid fitness for binding parS DNA” value was not above 0.2.

Regarding PRKW, the “one-hybrid fitness for binding parS DNA” value is not above 0.2.

Consider MSMR, for which the “one-hybrid fitness for binding parS DNA” value was not above 0.2.

For FAAD, the “one-hybrid fitness for binding parS DNA” value is not above 0.2.

With QLDI, the “one-hybrid fitness for binding parS DNA” value is not above 0.2.

With NDHA, the “one-hybrid fitness for binding parS DNA” value was not above 0.2.

As to AHWP, the “one-hybrid fitness for binding parS DNA” value is not above 0.2.

Turning to ETPS, the “one-hybrid fitness for binding parS DNA” value is not above 0.2.

As for LQFS, the “one-hybrid fitness for binding parS DNA” value is not above 0.2.

Take GTNV: the “one-hybrid fitness for binding parS DNA” value was not above 0.2.

As to CGCS, the “one-hybrid fitness for binding parS DNA” value is not above 0.2.

On to EGPM, for which the “one-hybrid fitness for binding parS DNA” value is not above 0.2.

As for LKQD, the “one-hybrid fitness for binding parS DNA” value was not above 0.2.

With CYDY, the “one-hybrid fitness for binding parS DNA” value was not above 0.2.

In the case of NPTF, the “one-hybrid fitness for binding parS DNA” value is not above 0.2.

Consider QQSF, for which the “one-hybrid fitness for binding parS DNA” value is not above 0.2.

Consider PNTA, for which the “one-hybrid fitness for binding parS DNA” value is not above 0.2.

As to IRVY, the “one-hybrid fitness for binding parS DNA” value is not above 0.2.

For the variant KPAI, the “one-hybrid fitness for binding parS DNA” value is not above 0.2.

For YDTV, the “one-hybrid fitness for binding parS DNA” value is not above 0.2.

Turning to SQRH, the “one-hybrid fitness for binding parS DNA” value is not above 0.2.

Take KSLC: the “one-hybrid fitness for binding parS DNA” value is not above 0.2.

RENF: the “one-hybrid fitness for binding parS DNA” value is not above 0.2.

On to IIAM, for which the “one-hybrid fitness for binding parS DNA” value is not above 0.2.

In the case of RKLD, the “one-hybrid fitness for binding parS DNA” value is not above 0.2.

Consider VKGC, for which the “one-hybrid fitness for binding parS DNA” value is not above 0.2.

Consider YAAA, for which the “one-hybrid fitness for binding parS DNA” value is not above 0.2.

With VNTK, the “one-hybrid fitness for binding parS DNA” value is not above 0.2.

Turning to TSFS, the “one-hybrid fitness for binding parS DNA” value was not above 0.2.

With IGRY, the “one-hybrid fitness for binding parS DNA” value is not above 0.2.

On to RRWS, for which the “one-hybrid fitness for binding parS DNA” value amounted to 0.772.

As for VYNV, the “one-hybrid fitness for binding parS DNA” value is not above 0.2.

Turning to RLSL, the “one-hybrid fitness for binding parS DNA” value was not above 0.2.

For the variant VYHP, the “one-hybrid fitness for binding parS DNA” value was not above 0.2.

For HPSA, the “one-hybrid fitness for binding parS DNA” value is not above 0.2.

As for PMLV, the “one-hybrid fitness for binding parS DNA” value is not above 0.2.

Regarding IQAN, the “one-hybrid fitness for binding parS DNA” value is not above 0.2.

For the variant QRCD, the “one-hybrid fitness for binding parS DNA” value is not above 0.2.

With WQVG, the “one-hybrid fitness for binding parS DNA” value is not above 0.2.

For ASNH, the “one-hybrid fitness for binding parS DNA” value is not above 0.2.

As to RFHT, the “one-hybrid fitness for binding parS DNA” value was found to be 0.853.

As to YDRK, the “one-hybrid fitness for binding parS DNA” value is not above 0.2.

As to TLKF, the “one-hybrid fitness for binding parS DNA” value was not above 0.2.

Take PFRS: the “one-hybrid fitness for binding parS DNA” value was not above 0.2.

On to MQCG, for which the “one-hybrid fitness for binding parS DNA” value is not above 0.2.

As to NTHM, the “one-hybrid fitness for binding parS DNA” value is not above 0.2.

Regarding TNWS, the “one-hybrid fitness for binding parS DNA” value is not above 0.2.

AYHW: the “one-hybrid fitness for binding parS DNA” value was not above 0.2.

As for IMHS, the “one-hybrid fitness for binding parS DNA” value is not above 0.2.

TEFR: the “one-hybrid fitness for binding parS DNA” value was not above 0.2.

On to EWLS, for which the “one-hybrid fitness for binding parS DNA” value was not above 0.2.

Turning to RQLW, the “one-hybrid fitness for binding parS DNA” value was 0.223.

With GLPV, the “one-hybrid fitness for binding parS DNA” value was not above 0.2.

As for TCSD, the “one-hybrid fitness for binding parS DNA” value is not above 0.2.

As to GKLR, the “one-hybrid fitness for binding parS DNA” value was not above 0.2.

Regarding MSHP, the “one-hybrid fitness for binding parS DNA” value is not above 0.2.

Turning to MSTT, the “one-hybrid fitness for binding parS DNA” value was not above 0.2.

Turning to NSPV, the “one-hybrid fitness for binding parS DNA” value is not above 0.2.

Turning to DMLR, the “one-hybrid fitness for binding parS DNA” value is not above 0.2.

For MVHT, the “one-hybrid fitness for binding parS DNA” value was not above 0.2.

With NVVY, the “one-hybrid fitness for binding parS DNA” value was not above 0.2.

As to HVDI, the “one-hybrid fitness for binding parS DNA” value is not above 0.2.

STPF: the “one-hybrid fitness for binding parS DNA” value is not above 0.2.

For VRQA, the “one-hybrid fitness for binding parS DNA” value is not above 0.2.

AMPE: the “one-hybrid fitness for binding parS DNA” value is not above 0.2.

With RGCK, the “one-hybrid fitness for binding parS DNA” value was not above 0.2.

In the case of ASVT, the “one-hybrid fitness for binding parS DNA” value is not above 0.2.

Consider TIEW, for which the “one-hybrid fitness for binding parS DNA” value is not above 0.2.

For the variant YKSK, the “one-hybrid fitness for binding parS DNA” value was not above 0.2.

Turning to ITVY, the “one-hybrid fitness for binding parS DNA” value was not above 0.2.

With QQSQ, the “one-hybrid fitness for binding parS DNA” value is not above 0.2.

Turning to DVVM, the “one-hybrid fitness for binding parS DNA” value was not above 0.2.

For PAWF, the “one-hybrid fitness for binding parS DNA” value is not above 0.2.
